About 31,000 (8.9%) of roughly 350,000 compounds were called active. The shares of active, inactive and inconclusive entries below differ from those in the screen. Calls come from the whole dose curve; as a rule, active = well fitted inhibition curve with a large enough effect; inconclusive = small, poorly fitted or top-dose-only effect; inactive = no such curve, though single readings can be large or run the other way. A potency beside an inconclusive call is a rough fit, not a confirmed value.
Biological target: Histone-lysine N-methyltransferase EHMT2 (Homo sapiens) (UniProt Q96KQ7)
UniProt Q96KQ7, sequence (Q96KQ7 whole entry, looked up): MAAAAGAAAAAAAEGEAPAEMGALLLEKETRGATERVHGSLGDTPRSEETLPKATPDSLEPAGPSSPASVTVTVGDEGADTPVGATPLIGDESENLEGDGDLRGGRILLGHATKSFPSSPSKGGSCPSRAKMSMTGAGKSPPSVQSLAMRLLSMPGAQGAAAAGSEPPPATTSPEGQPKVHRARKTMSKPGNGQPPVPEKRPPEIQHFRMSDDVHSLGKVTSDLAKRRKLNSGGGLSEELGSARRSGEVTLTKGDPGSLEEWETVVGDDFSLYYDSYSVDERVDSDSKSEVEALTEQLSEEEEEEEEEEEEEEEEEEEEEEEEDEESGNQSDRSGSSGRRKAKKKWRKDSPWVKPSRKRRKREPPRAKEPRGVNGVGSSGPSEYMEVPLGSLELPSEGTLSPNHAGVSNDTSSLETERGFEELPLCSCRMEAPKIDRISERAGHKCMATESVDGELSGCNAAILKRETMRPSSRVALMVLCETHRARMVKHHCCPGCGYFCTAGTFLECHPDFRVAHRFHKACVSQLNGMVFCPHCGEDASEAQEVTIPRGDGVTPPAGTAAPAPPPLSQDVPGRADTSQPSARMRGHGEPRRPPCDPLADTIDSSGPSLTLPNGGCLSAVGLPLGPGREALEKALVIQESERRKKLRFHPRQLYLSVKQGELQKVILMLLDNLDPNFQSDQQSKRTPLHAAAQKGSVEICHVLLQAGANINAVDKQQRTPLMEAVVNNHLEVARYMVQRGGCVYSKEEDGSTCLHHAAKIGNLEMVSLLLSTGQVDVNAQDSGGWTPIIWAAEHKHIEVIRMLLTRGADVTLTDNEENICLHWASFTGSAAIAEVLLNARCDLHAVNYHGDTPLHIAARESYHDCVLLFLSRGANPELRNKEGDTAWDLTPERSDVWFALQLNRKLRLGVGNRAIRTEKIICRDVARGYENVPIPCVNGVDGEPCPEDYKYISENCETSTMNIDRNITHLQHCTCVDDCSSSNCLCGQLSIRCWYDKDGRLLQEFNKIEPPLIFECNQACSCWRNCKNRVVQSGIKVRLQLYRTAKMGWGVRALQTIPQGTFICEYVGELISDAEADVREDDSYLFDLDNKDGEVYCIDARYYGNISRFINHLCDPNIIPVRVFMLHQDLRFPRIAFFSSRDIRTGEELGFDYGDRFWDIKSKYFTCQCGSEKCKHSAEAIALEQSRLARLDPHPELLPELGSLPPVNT
Assay: qHTS Assay for Inhibitors of Histone Lysine Methyltransferase G9a; note: nearly all actives have a fitted effect of over 75% in size
Conditions: G9a H3K9 monomethylation, AlphaScreen, 2 h; activity, negative = inhibition: at 59 µM (top of the series) unless noted
Outline: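 Signal arises when biotinylated H3K9 peptide, once monomethylated, bridges streptavidin donor and antibody-captured acceptor beads. Enzyme at 20 nM was preincubated 15 min with test compounds; peptide 500 nM and SAM 20 uM then reacted for 2 h.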
% is set by controls: 0 for no effect and ±100 for the full control effect; potency is the fitted concentration of half-maximal effect; tags give direction and shape of the fitted curve.

| SMILES | Potency | activity, negative = inhibition |
| --- | --- | --- |
| COc1ccc(-n2cc(-c3ccccc3)[nH]c2=S)cc1 | active: 1.58 µM |  |
| Cc1cc(C(=O)COC(=O)c2cccc(S(=O)(=O)N(C)C)c2)c(C)n1CC1CCCO1 (centres undefined) | inconclusive: 50.1 µM [inhibitor, partial curve] |  |
| COC(=O)C1CCN(S(=O)(=O)Cc2ccccc2)CC1 | inconclusive: 2.51 µM [inhibitor, single point] |  |
| CCOC(=O)c1c(C)[n+]([O-])c2ccc3c(non3O)c12 | inconclusive: 31.6 µM [inhibitor, partial curve, poor fit] |  |
| O=[N+]([O-])c1ccc(F)cc1Oc1nc(-c2cccnc2)nc2ccccc12 | inconclusive: 44.7 µM [inhibitor, partial curve] |  |
| CCOC(=O)C1=C(CSc2nc3ccccc3s2)NC(=O)NC1c1ccc(OC)cc1 (centres undefined) | inconclusive: 89.1 µM [inhibitor, single point] |  |
| FC(F)(F)c1cc(-c2ccccc2)nc2cc(-c3ccccc3)nn12 |  | inactive: 45.2% |
| C=CCN(c1ccccc1)S(=O)(=O)c1ccc(Cl)c(C(=O)OCC(=O)c2[nH]c(C)c(C(C)=O)c2C)c1 | inconclusive: 7.08 µM [inhibitor, single point] |  |
| CCN(CC)S(=O)(=O)c1ccc2c(c1)N(CC(=O)Nc1cccc(C#N)c1)C(=O)CO2 |  | inactive: -10.2% |
| CC(NC(=S)NCCc1ccccc1)C(c1cccs1)N1CCN(Cc2ccccc2)CC1 (centres undefined) | inconclusive: 89.1 µM [inhibitor, single point] |  |
| COc1ccc(N2CC(C(=O)OC(C)C(=O)c3ccccc3)CC2=O)cc1 (centres undefined) |  | inactive: 2.92% [at 102 µM] |
| O=C(Nc1nnc(CCN2CCCCC2)s1)c1ccccc1 |  | inactive: -5.27% |
| COc1cccc(-c2nc(CS(=O)CC(=O)NC(C)CCc3ccccc3)c(C)o2)c1 (centres undefined) | inconclusive: 50.1 µM [inhibitor, single point] |  |
| CCCCSc1nc2sc3c(c2c(=O)n1-c1ccccc1C)CC(C)(C)OC3 |  | inactive: -37.6% |
| COc1cc2c(cc1NCc1ccc3c(c1)OCO3)oc1ccccc12 | inconclusive: 39.8 µM [inhibitor, single point] |  |
| CCOC(=O)c1c(CN2CCN(CCO)CC2)n(-c2ccccc2)c2cc(Br)c(O)cc12 | inconclusive: 15.8 µM [inhibitor, partial curve] |  |
| CCn1nc(C)c(CN2CCC(n3nccc3NC(=O)Cc3ccccc3)CC2)c1C |  | inactive: -18.9% [at 102 µM] |
| CCC(C)NCCOCCOc1ccc(Cl)c(C)c1C (centres undefined) | inconclusive: 35.5 µM [inhibitor, single point] |  |
| Cc1cc(=S)nc(-c2ccccn2)[nH]1 |  | inconclusive: -92.2% [inhibitor] |
| CCOc1ccc(/C=C(\C#N)C(=O)c2c(C)[nH]c3ccccc23)cc1OC | inconclusive: 44.7 µM [inhibitor, partial curve, poor fit] |  |
| CCn1c(N)c(C(=O)Nc2ccccc2C(=O)OC)sc1=S | inconclusive: 28.2 µM [inhibitor, full curve, poor fit] |  |
| Cc1cc(SC#N)cc(C)c1NC(=O)CCl | inconclusive: 89.1 µM [inhibitor, single point] |  |

| SMILES | Potency | activity, negative = inhibition |
| --- | --- | --- |
| COCCSc1nnc(NC(=O)c2ccc([N+](=O)[O-])cc2)s1 |  | inactive: -30.3% [at 102 µM] |
| COc1ccccc1C(=O)NCCC(=O)NCc1cccs1 |  | inactive: -1.09% [at 102 µM] |
| O=C(CSc1nc2[nH]ncc2c(=O)n1-c1ccc(Cl)c(Cl)c1)NCc1ccccc1Cl | inconclusive: 1.41 µM [inhibitor, full curve, poor fit] |  |
| Cc1nc(NC(=O)CN2CC(C)OC(C)C2)sc1C(=O)N(C)C (centres undefined) | inconclusive: 63.1 µM [inhibitor, single point] |  |
| O=C(CCC1CCCN(C(=O)C2CCCC2)C1)NCc1ccc(F)c(F)c1 (centres undefined) |  | inactive: -4.13% [at 12.7 µM] |
| CN(C(=O)CSc1ccc(S(=O)(=O)N2CCCCC2)cn1)c1ccccc1 |  | inactive: -7.25% [at 12.7 µM] |
| Cc1ccc2onc(CC(=O)N3CCN(c4cccc(Cl)c4)CC3)c2c1 |  | inactive: -44.3% |
| COc1ccc(Nc2ncnc3c2cnn3-c2cccc(C)c2)cc1OC | inconclusive: 1.41 µM [inhibitor, single point] |  |
| COc1ccc(NC(=O)COc2cccc(C(F)(F)F)c2)cn1 | inconclusive: 79.4 µM [inhibitor, single point] |  |
| Cc1cccc([C@@H]2[C@@H]3C(=O)N(Cc4ccccc4)C(=O)[C@@H]3[C@]3(Cc4ccc(Cl)cc4)C(=O)N(c4ccc(Br)cc4)C(=O)N23)c1 | inconclusive: 25.1 µM [inhibitor, single point] |  |
| O=C(NCc1ccc2[nH]c3c(c2c1)CCCC3)N1CCOCC1 | inconclusive: 3.98 µM [inhibitor, single point] |  |
| Cc1cc(C)c(S(=O)(=O)Nc2nnc(C)s2)c(C)c1 |  | inactive: -11.3% |
| O=C(CN1CCSCC1)N/N=C/c1ccc(F)cc1F | active: 15.8 µM |  |
| COc1cccc(OC)c1OCCNCCO |  | inactive: 4.68% |
| OCCN(CCO)c1ncnc2c1sc1nc(N3CCOCC3)c3c(c12)CCCC3 |  | inactive: -50.8% [at 102 µM] |
| COc1ccc2nc(C)[nH]c(=O)c2c1 |  | inactive: -1.89% [at 102 µM] |
| CN(C)c1ncc2nc(-c3ccc(Cl)cc3)c(=O)n(C[C@H]3CCCO3)c2n1 |  | inactive: 3.45% [at 0.501 µM] |
| CC(=O)Nc1ccc(S(=O)(=O)N(C)CC(=O)OCC(=O)c2cc(C)n(-c3ccc4c(c3)OCO4)c2C)cc1 | inconclusive: 89.1 µM [inhibitor, single point] |  |
| O=C(OCn1ncc(Br)c(Br)c1=O)c1c(F)cccc1F | inconclusive: 35.5 µM [inhibitor, partial curve, poor fit] |  |
| CC(=O)O[C@H]1C(=O)[C@@]2(C)[C@H]([C@H](OC(=O)c3ccccc3)[C@]3(O)C[C@H](OC(=O)[C@H](O)[C@@H](NC(=O)c4ccccc4)c4ccccc4)C(C)=C1C3(C)C)[C@]1(OC(C)=O)CO[C@@H]1C[C@@H]2O | inactive |  |
| N=c1n(Cc2ccc(Cl)cc2)c2ccccc2n1CC(O)c1ccco1 (centres undefined) | inconclusive: 12.6 µM [inhibitor, partial curve] |  |
| O=C1N/C(=C/c2cccn2-c2ccccc2)C(=O)N1c1cccc(Cl)c1 | active: 1 µM |  |

From PubChem BioAssay AID504332 (National Center for Advancing Translational Sciences (NCATS), 2011)
